Paper PMC12820563, “FoxP3 forms a head-to-head dimer in vivo and stabilizes its multimerization on adjacent microsatellites”
The other results are listed elsewhere or left out.

These sequences were tested against T1, MBP-FoxP1dN (Mus musculus, UniProt P58462 326-579) (assay: PD-seq (MBP pull-down with sequencing); 20 mM Tris-HCl pH 7.5, 100 mM NaCl, 1.5 mM MgCl2, 0.4 uM protein, 0.1 uM dsDNA library, 30 min, room temperature, amylose pull-down; high values mean tight binding). Conditions: protein: recombinant; tags: His6-MBP; chain copies: 2; dsDNA, one strand shown.
T1 sequence: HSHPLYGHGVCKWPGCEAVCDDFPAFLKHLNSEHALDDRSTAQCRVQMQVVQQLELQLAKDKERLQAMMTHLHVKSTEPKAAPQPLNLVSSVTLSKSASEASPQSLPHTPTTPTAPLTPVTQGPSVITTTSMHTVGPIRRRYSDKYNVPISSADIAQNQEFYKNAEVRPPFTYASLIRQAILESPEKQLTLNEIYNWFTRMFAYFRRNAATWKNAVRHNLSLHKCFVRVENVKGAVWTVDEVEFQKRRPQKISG
Outline: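 His6-MBP-tagged mouse FoxP3 or FoxP1 fragment lacking the N-terminus, expressed in E. coli, was mixed at 0.4 µM with 0.1 µM Klenow-filled double-stranded degenerate DNA library. Incubation was 30 min at room temperature in Tris pH 7.5 buffer with NaCl and MgCl2. Complexes were caught on amylose resin and washed three times; DNA was released with proteinase K, PCR-barcoded and Illumina-sequenced. Binding is reads-per-million enrichment, pull-down over input, with replicates pooled.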

Sequence	binding signal
GATGATTGTTCTCCCAGCTGATGAATTCTCCTTTTCGAGTAAACAAATTTTCCTAATCTTTCTGTTCAAGCGCCATCTAC	0.927 RPM ratio (pull-down/input)
GATGATTGTTCTCCCAGCTGATGAATTACTACTTTCGAGTAAACAAATTTTCCTAATCTTTCTGTTCAAGCGCCATCTAC	1.07 RPM ratio (pull-down/input)
GATGATTGTTCTCCCAGCTGATGAATTTACTAACTCGAGTAAACAAATTTTCCTAATCTTTCTGTTCAAGCGCCATCTAC	1.44 RPM ratio (pull-down/input)
GATGATTGTTCTCCCAGCTGATGAATTTTTTAAGTCGAGTAAACAAATTTTCCTAATCTTTCTGTTCAAGCGCCATCTAC	0.926 RPM ratio (pull-down/input)
GATGATTGTTCTCCCAGCTGATGAATTACACAAATCGAGTAAACAAATTTTCCTAATCTTTCTGTTCAAGCGCCATCTAC	1.77 RPM ratio (pull-down/input)
GATGATTGTTCTCCCAGCTGATGAATTAAAGGTATCGAGTAAACAAATTTTCCTAATCTTTCTGTTCAAGCGCCATCTAC	0.974 RPM ratio (pull-down/input)
GATGATTGTTCTCCCAGCTGATGAATTCATCTATTCGAGTAAACAAATTTTCCTAATCTTTCTGTTCAAGCGCCATCTAC	0.906 RPM ratio (pull-down/input)
GATGATTGTTCTCCCAGCTGATGAATTTTTCACATCGAGTAAACAAATTTTCCTAATCTTTCTGTTCAAGCGCCATCTAC	1.03 RPM ratio (pull-down/input)
GATGATTGTTCTCCCAGCTGATGAATTCAACAATTCGAGTAAACAAATTTTCCTAATCTTTCTGTTCAAGCGCCATCTAC	1.27 RPM ratio (pull-down/input)
GATGATTGTTCTCCCAGCTGATGAATTGGCTCCATCGAGTAAACAAATTTTCCTAATCTTTCTGTTCAAGCGCCATCTAC	0.923 RPM ratio (pull-down/input)
GATGATTGTTCTCCCAGCTGATGAATTCAATCATTCGAGTAAACAAATTTTCCTAATCTTTCTGTTCAAGCGCCATCTAC	0.965 RPM ratio (pull-down/input)
GATGATTGTTCTCCCAGCTGATGAATTGGCTACGTCGAGTAAACAAATTTTCCTAATCTTTCTGTTCAAGCGCCATCTAC	0.86 RPM ratio (pull-down/input)
GATGATTGTTCTCCCAGCTGATGAATTGGTCAGGTCGAGTAAACAAATTTTCCTAATCTTTCTGTTCAAGCGCCATCTAC	0.794 RPM ratio (pull-down/input)
GATGATTGTTCTCCCAGCTGATGAATTCATGACGTCGAGTAAACAAATTTTCCTAATCTTTCTGTTCAAGCGCCATCTAC	0.965 RPM ratio (pull-down/input)
GATGATTGTTCTCCCAGCTGATGAATTTGTCAACTCGAGTAAACAAATTTTCCTAATCTTTCTGTTCAAGCGCCATCTAC	1.49 RPM ratio (pull-down/input)
GATGATTGTTCTCCCAGCTGATGAATTTCATCGGTCGAGTAAACAAATTTTCCTAATCTTTCTGTTCAAGCGCCATCTAC	0.797 RPM ratio (pull-down/input)
GATGATTGTTCTCCCAGCTGATGAATTCTGGTTGTCGAGTAAACAAATTTTCCTAATCTTTCTGTTCAAGCGCCATCTAC	1.08 RPM ratio (pull-down/input)
GATGATTGTTCTCCCAGCTGATGAATTGGACCTATCGAGTAAACAAATTTTCCTAATCTTTCTGTTCAAGCGCCATCTAC	0.853 RPM ratio (pull-down/input)
GATGATTGTTCTCCCAGCTGATGAATTATGGTACTCGAGTAAACAAATTTTCCTAATCTTTCTGTTCAAGCGCCATCTAC	1.02 RPM ratio (pull-down/input)
GATGATTGTTCTCCCAGCTGATGAATTATTGATATCGAGTAAACAAATTTTCCTAATCTTTCTGTTCAAGCGCCATCTAC	1.53 RPM ratio (pull-down/input)
GATGATTGTTCTCCCAGCTGATGAATTCATACAGTCGAGTAAACAAATTTTCCTAATCTTTCTGTTCAAGCGCCATCTAC	0.952 RPM ratio (pull-down/input)

Sequence	binding signal
GATGATTGTTCTCCCAGCTGATGAATTGAATTTTTCGAGTAAACAAATTTTCCTAATCTTTCTGTTCAAGCGCCATCTAC	0.979 RPM ratio (pull-down/input)
GATGATTGTTCTCCCAGCTGATGAATTCGATCCCTCGAGTAAACAAATTTTCCTAATCTTTCTGTTCAAGCGCCATCTAC	0.798 RPM ratio (pull-down/input)
GATGATTGTTCTCCCAGCTGATGAATTCTCCGGGTCGAGTAAACAAATTTTCCTAATCTTTCTGTTCAAGCGCCATCTAC	0.759 RPM ratio (pull-down/input)
GATGATTGTTCTCCCAGCTGATGAATTAACGGAGTCGAGTAAACAAATTTTCCTAATCTTTCTGTTCAAGCGCCATCTAC	0.839 RPM ratio (pull-down/input)
GATGATTGTTCTCCCAGCTGATGAATTCTTATCATCGAGTAAACAAATTTTCCTAATCTTTCTGTTCAAGCGCCATCTAC	1.04 RPM ratio (pull-down/input)
GATGATTGTTCTCCCAGCTGATGAATTGGGTAATTCGAGTAAACAAATTTTCCTAATCTTTCTGTTCAAGCGCCATCTAC	1 RPM ratio (pull-down/input)
GATGATTGTTCTCCCAGCTGATGAATTACCGTACTCGAGTAAACAAATTTTCCTAATCTTTCTGTTCAAGCGCCATCTAC	0.988 RPM ratio (pull-down/input)
GATGATTGTTCTCCCAGCTGATGAATTTGCCGGCTCGAGTAAACAAATTTTCCTAATCTTTCTGTTCAAGCGCCATCTAC	0.799 RPM ratio (pull-down/input)
GATGATTGTTCTCCCAGCTGATGAATTTGGCAAATCGAGTAAACAAATTTTCCTAATCTTTCTGTTCAAGCGCCATCTAC	1.07 RPM ratio (pull-down/input)
GATGATTGTTCTCCCAGCTGATGAATTGATATACTCGAGTAAACAAATTTTCCTAATCTTTCTGTTCAAGCGCCATCTAC	1.05 RPM ratio (pull-down/input)
GATGATTGTTCTCCCAGCTGATGAATTCAGTGTGTCGAGTAAACAAATTTTCCTAATCTTTCTGTTCAAGCGCCATCTAC	0.986 RPM ratio (pull-down/input)
GATGATTGTTCTCCCAGCTGATGAATTGGCCACATCGAGTAAACAAATTTTCCTAATCTTTCTGTTCAAGCGCCATCTAC	0.966 RPM ratio (pull-down/input)
GATGATTGTTCTCCCAGCTGATGAATTTACAAGATCGAGTAAACAAATTTTCCTAATCTTTCTGTTCAAGCGCCATCTAC	1.21 RPM ratio (pull-down/input)
GATGATTGTTCTCCCAGCTGATGAATTCATCCCCTCGAGTAAACAAATTTTCCTAATCTTTCTGTTCAAGCGCCATCTAC	0.888 RPM ratio (pull-down/input)
GATGATTGTTCTCCCAGCTGATGAATTCCGCTTCTCGAGTAAACAAATTTTCCTAATCTTTCTGTTCAAGCGCCATCTAC	0.813 RPM ratio (pull-down/input)
GATGATTGTTCTCCCAGCTGATGAATTGCCAGCGTCGAGTAAACAAATTTTCCTAATCTTTCTGTTCAAGCGCCATCTAC	0.925 RPM ratio (pull-down/input)
GATGATTGTTCTCCCAGCTGATGAATTTTATCAGTCGAGTAAACAAATTTTCCTAATCTTTCTGTTCAAGCGCCATCTAC	0.902 RPM ratio (pull-down/input)
GATGATTGTTCTCCCAGCTGATGAATTAACCGAATCGAGTAAACAAATTTTCCTAATCTTTCTGTTCAAGCGCCATCTAC	0.992 RPM ratio (pull-down/input)
GATGATTGTTCTCCCAGCTGATGAATTTGTTTACTCGAGTAAACAAATTTTCCTAATCTTTCTGTTCAAGCGCCATCTAC	2.62 RPM ratio (pull-down/input)
GATGATTGTTCTCCCAGCTGATGAATTTCCGACCTCGAGTAAACAAATTTTCCTAATCTTTCTGTTCAAGCGCCATCTAC	0.807 RPM ratio (pull-down/input)
GATGATTGTTCTCCCAGCTGATGAATTGTATCCATCGAGTAAACAAATTTTCCTAATCTTTCTGTTCAAGCGCCATCTAC	1.18 RPM ratio (pull-down/input)

Sequence	binding signal
GATGATTGTTCTCCCAGCTGATGAATTAGTGAGATCGAGTAAACAAATTTTCCTAATCTTTCTGTTCAAGCGCCATCTAC	0.857 RPM ratio (pull-down/input)
GATGATTGTTCTCCCAGCTGATGAATTTTCCCTGTCGAGTAAACAAATTTTCCTAATCTTTCTGTTCAAGCGCCATCTAC	0.824 RPM ratio (pull-down/input)
GATGATTGTTCTCCCAGCTGATGAATTATCAAACTCGAGTAAACAAATTTTCCTAATCTTTCTGTTCAAGCGCCATCTAC	1.02 RPM ratio (pull-down/input)
GATGATTGTTCTCCCAGCTGATGAATTAGCGCCTTCGAGTAAACAAATTTTCCTAATCTTTCTGTTCAAGCGCCATCTAC	1.01 RPM ratio (pull-down/input)
GATGATTGTTCTCCCAGCTGATGAATTACTAATTTCGAGTAAACAAATTTTCCTAATCTTTCTGTTCAAGCGCCATCTAC	1.25 RPM ratio (pull-down/input)
GATGATTGTTCTCCCAGCTGATGAATTCCCTAGTTCGAGTAAACAAATTTTCCTAATCTTTCTGTTCAAGCGCCATCTAC	0.777 RPM ratio (pull-down/input)
GATGATTGTTCTCCCAGCTGATGAATTGACGCCCTCGAGTAAACAAATTTTCCTAATCTTTCTGTTCAAGCGCCATCTAC	0.974 RPM ratio (pull-down/input)
GATGATTGTTCTCCCAGCTGATGAATTTAACCAATCGAGTAAACAAATTTTCCTAATCTTTCTGTTCAAGCGCCATCTAC	1.07 RPM ratio (pull-down/input)
GATGATTGTTCTCCCAGCTGATGAATTTAGAGGGTCGAGTAAACAAATTTTCCTAATCTTTCTGTTCAAGCGCCATCTAC	0.887 RPM ratio (pull-down/input)
GATGATTGTTCTCCCAGCTGATGAATTTGCGCCGTCGAGTAAACAAATTTTCCTAATCTTTCTGTTCAAGCGCCATCTAC	0.959 RPM ratio (pull-down/input)
GATGATTGTTCTCCCAGCTGATGAATTGCCTAGATCGAGTAAACAAATTTTCCTAATCTTTCTGTTCAAGCGCCATCTAC	0.931 RPM ratio (pull-down/input)
GATGATTGTTCTCCCAGCTGATGAATTATCCTTATCGAGTAAACAAATTTTCCTAATCTTTCTGTTCAAGCGCCATCTAC	0.969 RPM ratio (pull-down/input)
GATGATTGTTCTCCCAGCTGATGAATTACCAGACTCGAGTAAACAAATTTTCCTAATCTTTCTGTTCAAGCGCCATCTAC	0.92 RPM ratio (pull-down/input)
GATGATTGTTCTCCCAGCTGATGAATTTATAAGCTCGAGTAAACAAATTTTCCTAATCTTTCTGTTCAAGCGCCATCTAC	1.02 RPM ratio (pull-down/input)
GATGATTGTTCTCCCAGCTGATGAATTGCGGTGTTCGAGTAAACAAATTTTCCTAATCTTTCTGTTCAAGCGCCATCTAC	1.08 RPM ratio (pull-down/input)
GATGATTGTTCTCCCAGCTGATGAATTTGGTTATTCGAGTAAACAAATTTTCCTAATCTTTCTGTTCAAGCGCCATCTAC	1.15 RPM ratio (pull-down/input)
GATGATTGTTCTCCCAGCTGATGAATTGTTACTATCGAGTAAACAAATTTTCCTAATCTTTCTGTTCAAGCGCCATCTAC	1.45 RPM ratio (pull-down/input)
GATGATTGTTCTCCCAGCTGATGAATTCTTGTGTTCGAGTAAACAAATTTTCCTAATCTTTCTGTTCAAGCGCCATCTAC	1.6 RPM ratio (pull-down/input)
GATGATTGTTCTCCCAGCTGATGAATTTGTACCCTCGAGTAAACAAATTTTCCTAATCTTTCTGTTCAAGCGCCATCTAC	1.04 RPM ratio (pull-down/input)
GATGATTGTTCTCCCAGCTGATGAATTACGTCCCTCGAGTAAACAAATTTTCCTAATCTTTCTGTTCAAGCGCCATCTAC	0.968 RPM ratio (pull-down/input)
GATGATTGTTCTCCCAGCTGATGAATTGAAATCTTCGAGTAAACAAATTTTCCTAATCTTTCTGTTCAAGCGCCATCTAC	0.915 RPM ratio (pull-down/input)
